Results from PubChem BioAssay AID1768 (National Center for Advancing Translational Sciences (NCATS), 2009).
Screen size: about 270,000 compounds; about 620 (0.23%) were called active. The inconclusive results got no clear call from the source; some entries with a clear call stand among them for comparison. Calls come from the whole dose curve; as a rule, active = well fitted inhibition curve with a large enough effect in the polarisation, with a control signal flat (not every such curve was filed as active); inconclusive = small, poorly fitted or top-dose-only effect, or effect the other way, or a change in a side signal; inactive = no such curve, though single readings can be large or run the other way; the % refers to the polarisation. A potency beside an inconclusive call is a rough fit, not a confirmed value. “Side channel” marks fits to a control or component signal instead of the main read-out.

Biological target: Menin (Homo sapiens) (UniProt O00255)
Assay: qHTS Assay for Inhibitors Targeting the Menin-MLL Interaction in MLL Related Leukemias: Competition With Texas Red Labeled MLL-derived Mutant Peptide
Details: fluorescence polarization; series mostly up to 61.6 µM
Potency is the fitted concentration of half-maximal effect; tags give direction and shape of the fitted curve or compound fluorescence and quenching.

Sequence of UniProt O00255 (O00255 whole entry, looked up): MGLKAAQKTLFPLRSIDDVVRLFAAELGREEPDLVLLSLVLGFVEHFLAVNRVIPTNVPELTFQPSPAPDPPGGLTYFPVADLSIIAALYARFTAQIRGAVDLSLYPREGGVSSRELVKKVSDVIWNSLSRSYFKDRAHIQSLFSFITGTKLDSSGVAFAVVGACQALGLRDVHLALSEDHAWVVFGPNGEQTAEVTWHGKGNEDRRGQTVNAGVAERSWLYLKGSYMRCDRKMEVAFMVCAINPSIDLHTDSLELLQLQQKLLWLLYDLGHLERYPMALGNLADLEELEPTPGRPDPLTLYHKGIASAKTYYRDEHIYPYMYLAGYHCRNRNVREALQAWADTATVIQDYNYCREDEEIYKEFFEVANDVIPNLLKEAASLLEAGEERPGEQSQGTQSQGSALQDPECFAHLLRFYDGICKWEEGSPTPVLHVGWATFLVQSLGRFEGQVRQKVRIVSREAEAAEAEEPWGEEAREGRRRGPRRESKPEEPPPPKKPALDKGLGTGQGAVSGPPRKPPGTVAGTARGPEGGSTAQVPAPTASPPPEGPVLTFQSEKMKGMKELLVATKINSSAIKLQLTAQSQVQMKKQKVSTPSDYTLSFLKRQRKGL

Row | Compound | Potency
1 | COc1cccc(CNS(=O)(=O)c2cn(C)cn2)c1 | inconclusive: 31.6 µM [fluorescent, partial curve]
2 | CN(C(=O)COC(=O)c1ccc(Cl)cc1N)C1CCCCC1 | inconclusive: 14.1 µM [inhibitor, single point]
3 | Cc1ccc(C)c(NC(=O)Cc2nc(CNCC(C)C)cs2)c1 | inconclusive: 39.8 µM [fluorescent, side channel, single point]
4 | Cc1cccc(OCC(=O)N/N=C\C=C\c2ccc3c(c2)OCO3)c1C | inconclusive: 10 µM [inhibitor, partial curve]
5 | O=C(CC(C(=O)O)c1c[nH]c2ccccc12)c1ccccc1 (stereo not given) | inconclusive: 25.1 µM [quencher, side channel, single point]
6 | CC1=CC(=O)C(C(C)C)=C/C1=C(\c1cc(C(C)C)c(OP(=O)(O)O)cc1C)c1ccccc1C(=O)O | inconclusive: 25.1 µM [quencher, side channel, single point]
7 | Cc1cccn2c(=O)c(/C=C(\C#N)C(=O)NC3CCS(=O)(=O)C3)c(N3CCC(C(N)=O)CC3)nc12 (stereo not given) | inactive
8 | Cn1cc(/C=C2\SC(=S)N(NC(=O)c3ccccc3Cl)C2=O)c2ccccc21 | inconclusive: 35.5 µM [inhibitor, single point]
9 | COc1ccc(C(=O)N/N=C/C(C)c2ccccc2)cc1OC (stereo not given) | inconclusive: 3.16 µM [fluorescent, side channel, single point]
10 | COc1cccc(-c2nn(-c3ccccc3)cc2CN(C)Cc2c(C)nc3ccccn23)c1 | inconclusive: 8.91 µM [fluorescent, side channel, full curve, poor fit]
11 | Cc1[nH]c2ccccc2c1C(=O)CN1CCN(c2ccc(Cl)cc2)CC1 | inconclusive: 39.8 µM [inhibitor, single point]
12 | COc1cc(CN2CCCC(C(=O)N3CCc4ccccc4C3)C2)cc(OC)c1OC (stereo not given) | inconclusive: 35.5 µM [inhibitor, single point]
13 | Cc1[nH]n(-c2ccc(Br)cc2)c(=O)c1C=Nc1ccc(S(=O)(=O)Nc2nccs2)cc1 | inconclusive: 3.55 µM [quencher, side channel, full curve]
14 | O=C(N/N=C/c1cn(-c2cccs2)nc1-c1ccccc1)c1ccc(O)cc1 | inconclusive: 6.31 µM [quencher, side channel, partial curve]
15 | CC(=O)c1ccc(S(=O)(=O)N2CCC(NC(=O)Nc3cccc(F)c3)CC2)cc1 | inconclusive: 22.4 µM [quencher, side channel, partial curve]
16 | COc1cccc2sc(Nc3nc(-c4ccncc4)cs3)nc12 | inconclusive: 12.6 µM [quencher, side channel, partial curve]
17 | Cc1ccc(C(OC(=O)c2ccco2)C(=O)NC2CCCCC2)cc1 (stereo not given) | inconclusive: 2.24 µM [inhibitor, full curve]
18 | COc1ccc(Cn2c(SCc3ccc(C)cc3)nc3cc(OC)c(OC)cc3c2=N)cc1Cl | inconclusive: 0.631 µM [inhibitor, full curve, poor fit]

Row | Compound | Potency
19 | N/N=c1\sc2ccccc2n1-c1ccccc1 | inconclusive: 39.8 µM [fluorescent, single point]
20 | CCn1cc(C(=O)OCC(=O)c2cc(C)n(-c3ccc(OC(F)F)cc3)c2C)c(=O)c2ccc(C)nc21 | inconclusive: 17.8 µM [fluorescent, side channel, single point]
21 | O=C(Nc1ccccc1C(=O)NC(Cc1ccccc1)C(=O)O)c1ccccc1 (stereo not given) | inconclusive: 12.6 µM [quencher, side channel, partial curve]
22 | O=C(CC(c1cccs1)S(=O)(=O)c1ccccc1)c1ccc(F)cc1 (stereo not given) | inconclusive: 25.1 µM [fluorescent, side channel, single point]
23 | O=C(OCCNc1ncc(C(F)(F)F)cc1Cl)c1ccc(S(=O)(=O)N2CCOCC2)cc1 | inactive
24 | N#CCCN1CCN(C(=S)c2ccc(-c3ccc(Cl)cc3)o2)CC1 | inconclusive: 25.1 µM [quencher, side channel, partial curve]
25 | COc1cccc(/C=C/c2nc(C#N)c(NCC(C)C)o2)c1 | inconclusive: 31.6 µM [quencher, side channel, single point]
26 | CCn1c2ccccc2c2cc(NC(=O)C/C(C)=N/NC(=O)c3ccccc3N)ccc21 | inconclusive: 10 µM [quencher, side channel, partial curve]
27 | C=C(C)COc1ccc(-c2n[nH]c(C)c2-c2ccccc2)c(O)c1 | inconclusive: 25.1 µM [quencher, side channel, partial curve]
28 | O=C(Nc1cccc(Cl)c1)Nc1ccc2nccnc2c1 | inconclusive: 3.98 µM [quencher, side channel, partial curve]
29 | CN(C)CC1CCCCC1OC(=O)c1ccc(Br)cc1 (stereo not given) | inconclusive: 22.4 µM [inhibitor, single point]
30 | CC(=O)Nc1ccc(S(=O)(=O)NC2=C(N3CCN(Cc4ccccc4)CC3)C(=O)c3ccccc3C2=O)cc1 | inconclusive: 25.1 µM [quencher, side channel, partial curve]
31 | CCCCNC(=O)Cn1nc(Cc2ccncc2)c2ccccc2c1=O | inconclusive: 0.708 µM [inhibitor, full curve, poor fit]
32 | O=C(CSc1nnc(-c2ccc(Cl)cc2Cl)n1C1CCCCC1)N1CCCC1 | inconclusive: 20 µM [fluorescent, side channel, partial curve]
33 | Nc1ccc2oc(-c3ccccc3Cl)cc(=O)c2c1O | inconclusive: 22.4 µM [quencher, side channel, partial curve]
34 | COc1ccc(C(=O)Nc2cc(-c3ccc(C)cc3)no2)cc1 | inconclusive: 39.8 µM [fluorescent, side channel, single point]
35 | COc1cccc(C(=O)Nc2ccc3ccccc3c2)c1 | inconclusive: 20 µM [quencher, side channel, single point]
